Assay results: PubChem BioAssay AID1346428 (National Center for Advancing Translational Sciences (NCATS), 2018)
“And” between values parts separate entries of the source, which are not always exact repeats. Equal values may be shown once. Out of some 48,000 compounds screened, about 1,200 (2.5%) were called active. Another 2% or so got no clear call; they are omitted.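 How the source made its calls: active means activation of at least 60% and not above a set upper limit (about 1 call in 100 departs from these limits); inconclusive means activation of 40% to 60%, or above that upper limit; inactive means activation under 40%.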 The list shows a part of the results.
Further: 0% is about no effect.

These compounds were tested against Probable G-protein coupled receptor 32 (Homo sapiens) (UniProt O75388) (assay: qHTS for Agonists of Human Resolvin D1 Receptor DRV1). Details: CHO-K1 GPR32 beta-arrestin PathHunter luminescence, 90 min; at 76.9 µM; hits give high values; zero percent set by DMSO-only wells.
Sequence of UniProt O75388 (O75388 whole entry, looked up): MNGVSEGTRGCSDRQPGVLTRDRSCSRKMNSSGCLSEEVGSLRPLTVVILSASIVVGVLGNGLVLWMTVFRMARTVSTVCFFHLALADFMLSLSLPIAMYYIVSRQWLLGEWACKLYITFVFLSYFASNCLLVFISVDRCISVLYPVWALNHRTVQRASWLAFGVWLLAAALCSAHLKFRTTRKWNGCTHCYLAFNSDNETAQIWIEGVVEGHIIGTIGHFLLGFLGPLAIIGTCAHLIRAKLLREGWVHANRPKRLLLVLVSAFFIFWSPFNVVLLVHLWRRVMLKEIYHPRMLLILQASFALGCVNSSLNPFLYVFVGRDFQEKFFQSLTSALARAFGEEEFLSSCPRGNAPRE
Summary of the method: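 Cells are plated overnight, treated with compounds in DMSO for 90 minutes at 37 °C, and developed with PathHunter detection reagent for 1 hour before luminescence is read; signal reflects beta-arrestin binding to GPR32 in engineered CHO-K1 cells.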
`COc1cc(NC(=O)c2cc(-c3ccc(Cl)c(Cl)c3)on2)cc(OC)c1OC` was tested, and the activation was inactive: 19.5%.
`COc1ccc(CNCCSc2nnnn2-c2ccccc2)c(OC)c1` was tested, and the activation was inactive: -5.29%.
For `O=C(CSc1nccn1Cc1ccc(F)cc1)Nc1ccc2c(c1)OCO2`, the activation was inactive: -13.8%.
With `Cc1ccc(CNC(=O)CN2C(=O)C3(SCC(=O)N3c3cc(C)cc(C)c3)c3ccccc32)cc1` (stereo not drawn) the activation was inactive: -19.6%.
`COc1ccc(N2CCN(C(=O)C3CCN(S(=O)(=O)Cc4ccccc4)CC3)CC2)cc1` was tested, and the activation was inactive: -0.871%.
With `CCOc1ccc(Nc2oc(-c3ccc(COc4ccccc4C)o3)nc2C#N)cc1` the activation was inactive: -16.9%.
For `Cc1nc(-c2cccc(F)c2)sc1CCNC(=O)c1ccc(F)c(F)c1`, the activation was active: 62.6%.
`CCN(c1ccccc1)S(=O)(=O)c1ccc(F)c(C(=O)Nc2ccc(C)cc2)c1` was tested, and the activation was inactive: -8.69%.
For `COc1cccc(C2C(C(=O)Nc3ccccc3)=C(C)Nc3nnnn32)c1OC` (stereo not drawn), the activation was inactive: -6.45%.
With `N[C@H](C(=O)O)[C@@H](O)c1ccc(O)c(O)c1` the activation was inactive: 4.51%.
With `COc1cc2c(-c3ccc(C)cc3)nc3c(c(C)nn3-c3ccccc3)c2cc1OC` the activation was inactive: -2.68%.
In the case of `CCc1ccccc1NC(=O)C1COc2ccccc2C1` (stereo not drawn), the activation is reported as inactive: -18.9%.
For `Cn1cnc(S(=O)(=O)N2CCC(C(=O)N3CCN(c4ccc(Cl)cc4)CC3)CC2)c1`, the activation was inactive: -4.79%.
In the case of `N#C/C(=C\c1ccccc1)C(=O)Nc1sc2c(c1C(N)=O)CCC2`, the activation is reported as inactive: -13.2%.
For `CC(C)Oc1ccc(CNC(=O)c2cnc3sc(N4CCCCC4)nn3c2=O)cc1`, the activation was inactive: -2.25%.
With `CC(=O)Nc1ccc(-n2c(CCC(=O)O)ccc2-c2ccc(C)cc2)cc1` the activation was inactive: -8.55%.
For `CCOC(=O)c1oc2ccc(S(=O)(=O)n3nc(-c4cc(OC)cc(OC)c4)cc3N)cc2c1C`, the activation was inactive: -9.56%.
`Cc1cc(C)cc(OCC(=O)Nc2ccc(Cl)c(-c3nc4ncccc4o3)c2)c1` was tested, and the activation was inactive: 22.4%.
`N#Cc1ccc(OC(=O)c2cc(-c3ccc4c(c3)OCCO4)on2)cc1` was tested, and the activation was inactive: -15.7%.
For `CCc1ccc(Sc2cc(C(=O)NCCCOC(C)C)c3ccccc3n2)cc1`, the activation was inactive: 29.8%.
In the case of `CCCn1c(=O)c2sccc2n2c(CCCC(=O)N3CCN(c4cccc(C)c4C)CC3)nnc12`, the activation is reported as inactive: -2.22%.
`Cc1ccc(NC(=O)CSc2nc3c(oc4ccccc43)c(=O)n2Cc2ccco2)cc1` was tested, and the activation was inactive: -20.7%.
With `CC(=O)N(Cc1cccnc1)c1nc2c(C)cccc2s1` the activation was inactive: -16%.
With `Cn1cc(-c2cc3n(n2)CCC(=O)N3CCCC(=O)Nc2ccc(F)cc2F)c2ccccc21` the activation was inactive: -3.39%.
For `Cc1cc(C)cc(-n2ccnc2SCC(=O)Nc2ccc3c(c2)OCO3)c1`, the activation was inactive: -11.9%.
`Cc1cc2nc(-c3ccc(Br)cc3)cc(C(F)(F)F)n2n1` was tested, and the activation was inactive: -1.13%.
In the case of `COc1ccc(CCn2c(=O)c3cccnc3n(CC(=O)Nc3cccc(C)c3)c2=O)cc1OC`, the activation is reported as inactive: -8.09%.
`CCOC(=O)C1CCN(C(=O)Cn2nc(C)n3c(cc4cc(C)ccc43)c2=O)CC1` was tested, and the activation was inactive: -0.509%.
With `COc1ccc(S(=O)(=O)NCc2ccc3c(c2)CCN3C(=O)c2ccc(C)cc2)cc1Cl` the activation was inactive: -22.8%.
With `Cc1nc2c(C(=O)NCCc3ccc(Cl)cc3)c[nH]n2c(=O)c1Cc1ccccc1F` the activation was inactive: 24.1%.
In the case of `CCc1ccc(-c2cn3c(n2)sc2cc(C(=O)NCC(C)c4ccccc4)ccc23)cc1` (stereo not drawn), the activation is reported as inactive: -11.9%.
In the case of `Cc1nnc2c(N3CCN(c4ccccc4)CC3)nc3ccc(C(=O)c4ccccc4)cc3n12`, the activation is reported as inactive: -1.01%.
For `Cc1ccc2nc(NS(=O)(=O)c3ccc(Cl)cc3)c(Nc3ccc(C(=O)O)cc3)nc2c1`, the activation was active: 83.2%.
In the case of `CCc1ccc(N2CCn3c2nc2c3c(=O)n(Cc3c(F)cccc3Cl)c(=O)n2C)cc1`, the activation is reported as inactive: -3.21%.
For `CCOC(=O)c1ccc(NC(=O)CCS(=O)(=O)c2ccc3c(c2)oc(=O)n3C)cc1`, the activation was inactive: -20.7%.
With `CCCCCn1c(=O)[nH]c2cc(C(=O)NCc3ccc(OC)cc3)ccc2c1=O` the activation was inactive: -5.52%.
In the case of `CCCC(=O)O[C@]1(C(=O)CCl)[C@@H](C)C[C@H]2[C@@H]3CCC4=CC(=O)C=C[C@]4(C)[C@@]3(F)C(=O)C[C@@]21C`, the activation is reported as inactive: -21.2%.
`COc1ccc(C2NC(=O)c3c(sc4c3CCN(C)C4)N2)cc1O` (stereo not drawn) was tested, and the activation was inactive: -29.9%.
For `CCN(CCCNC(=O)c1cc2c(=O)[nH]c3ccc(C)cc3c2s1)c1ccc(C)cc1`, the activation was inactive: -32.6%.
With `CCc1ccc(NC(=O)C(CC)n2nnc(C(=O)OC)c2C(=O)OC)cc1` (stereo not drawn) the activation was inactive: 24.7%.
For `CCOc1ccc(-n2nc3cc(C)c(NC(=O)CC)cc3n2)cc1`, the activation was inactive: 1.59%.
For `COc1ccccc1N(CC(=O)Nc1ccccc1F)S(C)(=O)=O`, the activation was inactive: -3.32%.
For `CCCCN(CCCC)CCNC(=O)CN1C(=O)CSc2ccc(S(=O)(=O)N3CCCCC3)cc21`, the activation was inactive: -18.1%.
In the case of `Cc1cccc(CN2C(=O)CC(c3ccc(Cl)cc3)c3c(C)nn(-c4nc(C)cc(C)n4)c32)c1` (stereo not drawn), the activation is reported as inactive: -27%.
`COc1ccccc1NC(=O)CN1C(=O)c2cccc3cccc1c23` was tested, and the activation was inactive: 31.9%.
For `Cc1cccc(N2CCN(C(=O)C3CCN(S(=O)(=O)c4cn(C)cn4)CC3)CC2)c1C`, the activation was inactive: -1.25%.
`Cc1ccc(Cl)cc1N1CCN(S(=O)(=O)c2ccc3[nH]c4c(c3c2)CCCC4)CC1` was tested, and the activation was inactive: 0.461%.
`CCOc1ccc2ccccc2c1C(=O)N[C@@H]1C(=O)N2[C@@H]1SC(C)(C)[C@@H]2C(=O)O` was tested, and the activation was inactive: -3%.
In the case of `Cc1ccc(NC(=O)N2CCN(c3nnc(C)c4c(C)n(-c5ccccc5)nc34)CC2)cc1Cl`, the activation is reported as inactive: -12.6%.
With `Cc1ccc(Cl)cc1Nc1nn2c(=O)c3ccc(C(=O)NCc4cccs4)cc3nc2s1` the activation was inactive: 29.3%.
In the case of `COc1ccccc1NC(=O)C1CCN(S(=O)(=O)c2ccc3c(c2)oc(=O)n3C)CC1`, the activation is reported as inactive: 13.7%.
In the case of `CCCN1C(=O)c2ccccc2CC1(C)C(=O)NC1CCCCC1` (stereo not drawn), the activation is reported as inactive: -4.86%.
`CCOCCCn1c(SCC(=O)Nc2cccc(OC)c2)nc2ccccc2c1=O` was tested, and the activation was inactive: -20.3%.
For `CN(C)C/C=C(/c1ccc(Br)cc1)c1cccnc1`, the activation was inactive: -1.08% and inactive: -20.2%.
With `CCOc1ccccc1CNC(=O)c1cnc2sc(N3CCCC3)nn2c1=O` the activation was inactive: -11.9%.
`CCC(CO)Nc1ncnc2c1cnn2-c1ccc(C)cc1` (stereo not drawn) was tested, and the activation was inactive: 14.8%.
In the case of `O=C(NCc1ccc2c(c1)OCO2)c1ccc2c(c1)N(Cc1ccc(F)cc1)C(=O)c1ccccc1S2=O` (stereo not drawn), the activation is reported as inactive: -11.9%.
With `CCOCCc1nn2c(=O)cc(COC(=O)c3cccs3)nc2s1` the activation was inactive: -2.25%.
For `Cc1ccc2nc(N(Cc3cccnc3)C(=O)c3ccc4c(c3)OCCO4)sc2c1`, the activation was inactive: 0.361%.
In the case of `CCN(c1ccc(Cl)cc1)S(=O)(=O)c1nnc(NC(=O)C2CCCCC2)s1`, the activation is reported as inactive: -13.4%.
In the case of `COc1ccccc1-c1ccnc2[nH]n(-c3ccccc3)c(=O)c12`, the activation is reported as inactive: -42.9%.
With `COc1ccc(Cn2ccnc2SCC(=O)NCc2ccccc2)cc1` the activation was inactive: -11.6%.
In the case of `CCC1CCCCN1C(=O)c1nn(-c2ccc(C)cc2)c(=O)c2c1c1ccccc1n2C` (stereo not drawn), the activation is reported as inactive: 31.5%.
`CCOc1ccc(CCNC(=O)c2cnc3sc(N4CCOCC4)nn3c2=O)cc1` was tested, and the activation was inactive: -3.02%.
`CCOc1ccc(C2C(=O)N(C3CCCCCC3)CC(=O)N2CCc2ccccc2)cc1OC` (stereo not drawn) was tested, and the activation was inactive: -29.9%.
For `Cc1ccc(C)c(S(=O)(=O)NCC(c2ccco2)S(=O)(=O)c2ccc(F)cc2)c1` (stereo not drawn), the activation was inactive: -10.9%.
In the case of `NCCCNCCCCNCCCN`, the activation is reported as inactive: -2.24%.
In the case of `CCOc1ccc(C(=O)Nc2ccc(S(=O)(=O)N3CCCCC3c3cccnc3)cc2)cc1` (stereo not drawn), the activation is reported as inactive: 11.4%.
In the case of `Cc1cccc(N2CCN(c3nc4ccccc4c(=O)n3-c3ccc(Cl)cc3)CC2)c1C`, the activation is reported as inactive: -17.9%.
In the case of `CCc1cccc(C)c1NC(=O)Cn1c(=O)cc(C(F)(F)F)c2c(C)nn(C)c21`, the activation is reported as inactive: 14.8%.
In the case of `Cc1noc(C)c1S(=O)(=O)N(CC(=O)NCc1ccccc1Cl)c1ccc(C(C)C)cc1`, the activation is reported as inactive: -9.61%.
In the case of `O=C(Nc1ccc(F)cc1F)c1c2c(nc3ccccc13)C(=O)N(C1CCCCC1)C2`, the activation is reported as inactive: -2.58%.
For `Cc1ccc(N2CCN(C(=O)c3ccc4c(Cl)c5c(nc4c3)CCCC5)CC2)c(C)c1`, the activation was inactive: -4.5%.
In the case of `O=C(CSc1nc2c([nH]c3ccccc32)c(=O)n1-c1ccccc1)c1ccccc1`, the activation is reported as inactive: -18.3%.
In the case of `O=C(Nc1c(-c2ccccc2)nc2ccccn12)c1ccc(Br)cc1`, the activation is reported as inactive: 13.4%.
For `O=C(NCc1cccs1)C1CCN(C(=O)N2CCOc3ccccc32)CC1`, the activation was inactive: -6.96%.
In the case of `Cc1ccc(N(CC(=O)N2CCN(c3ccc(Cl)cc3)CC2)S(=O)(=O)c2c(C)noc2C)cc1`, the activation is reported as inactive: 10.5%.
`CCOC(=O)c1cc(OC(=O)c2ccc(Cl)cc2)n(-c2ccccc2)n1` was tested, and the activation was inactive: 12.2%.
For `COc1ccc(-c2nn(CC(=O)Nc3ccccc3F)c3c2cnc2ccc(F)cc23)cc1`, the activation was inactive: 25.6%.
With `COc1ccc(C2C(=O)N(C3CCCCC3)CC(=O)N2Cc2ccccc2Cl)cc1OC` (stereo not drawn) the activation was inactive: -9.35%.
With `COc1ccc(CN2COc3ccc4c(-c5ccc(OC)cc5)cc(=O)oc4c3C2)cc1` the activation was inactive: -5.06%.
In the case of `CCc1ccc(-n2nc(C)c3c(C(=O)NCCc4ccc(OC)c(OC)c4)cc(C)nc32)cc1`, the activation is reported as inactive: -16.6%.
For `COc1ccc(N2CCN(S(=O)(=O)CCNC(=O)c3ccc(C(F)(F)F)cc3)CC2)cc1`, the activation was inactive: 1.1%.
